# Assay results as given in PubChem BioAssay AID488969 (Vanderbilt High Throughput Screening Facility, 2010).
# Whole data set: some 110,000 compounds, median “z-score” near -0.1, cut for the highest 2% near 2. The list shows a part of the results. The source made the active and inactive calls.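 The calls were made as follows: active = z-score in the third read window above 3 or below -3; inactive = the rest.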
# Target: Metabotropic glutamate receptor 8 (Rattus norvegicus) (UniProt P70579)
# Assay: mGluR8 Gi/Go-coupled signaling modulation – cell-based, rat, thallium flux, HTS, primary screen (AID 488969)
# Conditions: HEK293 rat mGluR8, GIRK (G protein-gated inwardly rectifying potassium channel) thallium flux, FluoZin2; at 10 µM; stronger effect = higher value; submaximal glutamate (EC20) added with thallium
# Sequence of UniProt P70579 (P70579 whole entry, looked up): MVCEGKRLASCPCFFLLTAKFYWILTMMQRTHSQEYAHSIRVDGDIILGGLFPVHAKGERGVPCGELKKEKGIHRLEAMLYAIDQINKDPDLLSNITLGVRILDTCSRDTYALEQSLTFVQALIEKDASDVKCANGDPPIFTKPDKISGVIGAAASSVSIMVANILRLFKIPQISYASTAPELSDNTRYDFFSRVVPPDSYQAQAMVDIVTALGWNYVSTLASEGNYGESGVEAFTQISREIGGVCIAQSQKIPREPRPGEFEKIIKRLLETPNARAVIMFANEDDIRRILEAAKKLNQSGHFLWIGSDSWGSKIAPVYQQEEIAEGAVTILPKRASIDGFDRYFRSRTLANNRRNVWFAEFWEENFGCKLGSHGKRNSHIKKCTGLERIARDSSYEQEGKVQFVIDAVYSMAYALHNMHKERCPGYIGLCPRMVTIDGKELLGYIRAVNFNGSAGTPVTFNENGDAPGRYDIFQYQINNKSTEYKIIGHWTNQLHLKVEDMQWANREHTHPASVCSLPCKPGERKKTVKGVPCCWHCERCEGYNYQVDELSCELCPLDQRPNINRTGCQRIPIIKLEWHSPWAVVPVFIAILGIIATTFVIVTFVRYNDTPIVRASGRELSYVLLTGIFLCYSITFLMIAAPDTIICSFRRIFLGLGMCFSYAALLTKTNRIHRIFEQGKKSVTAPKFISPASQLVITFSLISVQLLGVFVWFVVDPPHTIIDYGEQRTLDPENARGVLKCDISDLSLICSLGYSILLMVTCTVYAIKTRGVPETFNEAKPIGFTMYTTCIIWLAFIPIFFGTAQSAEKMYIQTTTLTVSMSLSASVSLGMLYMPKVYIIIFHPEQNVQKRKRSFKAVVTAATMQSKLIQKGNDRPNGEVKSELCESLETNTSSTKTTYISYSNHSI
row,Structure (SMILES),z-score
1,O=C(O)c1cc(NCc2ccc3c(c2)OCO3)ccc1N1CCOCC1,0.643
2,COc1ccc(OC)c(C2/C(=C(/O)c3ccccc3)C(=O)C(=O)N2Cc2ccco2)c1 (stereo not drawn),-0.483
3,Cc1ccc(OCCCNCCO)c(Br)c1,-0.432
4,COc1ccc(CN2CC(C(=O)NCc3cccc(OC)c3)CC2=O)cc1 (stereo not drawn),-0.676
5,O=C(CN1C(=O)C2C3C=CC(C3)C2C1=O)NCc1ccco1 (stereo not drawn),0.028
6,Cc1ccc(S(=O)(=O)N(Cc2cc3cc4c(cc3[nH]c2=O)OCCO4)CC2CCCO2)cc1 (stereo not drawn),0.011
7,CCOc1ccccc1CNC(=O)c1nn(CC)cc1[N+](=O)[O-],-0.235
8,O=C(NCc1ccco1)c1sc2cc(Cl)ccc2c1Cl,0.323
9,COC(=O)c1sc(-c2ccccc2)cc1NC(=O)c1ccccc1,-0.662
10,COc1ccc(C(=O)N2CCN(C(C)=O)CC2)cc1S(=O)(=O)NCc1ccc(Cl)cc1,-0.145
11,CC(NC(=O)C1CC=CCC1C(=O)O)C1CC2CCC1C2 (stereo not drawn),active: -4.35
12,CCOC(=O)C(C(=O)NCc1ccc(C)cc1)c1ncc(C(F)(F)F)cc1Cl (stereo not drawn),1.62
13,CC(=O)Nc1ccc(NC(=O)CSc2nccn2Cc2ccccc2)cc1,2.89
14,CCN(C(=O)COC(=O)c1c2c(nc3ccccc13)/C(=C/c1ccccc1)CC(C)C2)C1CCS(=O)(=O)C1 (stereo not drawn),-0.169
15,COc1cccc(C(=O)CN(C(=O)c2ccc(Cl)c(Cl)c2)N2C(=O)c3ccccc3C2=O)c1,-0.134
16,Cc1nc2c(Br)c3nc(C(F)(F)F)[nH]c3c(Br)c2[nH]1,-0.486
17,COC(=O)c1ccc(COc2ccc3c(C)c(C)c(=O)oc3c2C)o1,1.08
18,CCN(C(=O)CSc1ncccc1C(=O)OC(C)C)c1cccc(C)c1,-0.441
19,O=C(/C=C/NNC(=O)c1cccc(Br)c1)c1cccc(Br)c1,1.86
20,COc1ccc(/C=C/C(=O)NC(=S)NNC(=O)Cc2cccs2)cc1,0.855
21,CC(=O)CSc1nnc(-c2ccc3c(c2)OCO3)o1,0.167
22,CCCN1CCN(C(=O)c2cc3c(s2)-c2ccccc2S(=O)(=O)C3)CC1,-0.756
23,CN(C)/C=C1\N=C(c2ccc(Cl)cc2Cl)OC1=O,-0.162

row,Structure (SMILES),z-score
1,CC(Oc1ccccc1)c1ccnc2nc(/N=C/N(C)C)nn12 (stereo not drawn),-0.241
2,CCOC(=O)N/N=C/c1ccc(F)cc1,0.114
3,CCC(=O)Nc1ccc(-c2cc(-c3ccccc3)nc(-c3ccc(NC(=O)CC)cc3)n2)cc1,-0.865
4,CC(C)CNC(=O)c1cc2nc3c(c(C(F)(F)F)n2n1)CCc1ccccc1-3,0.631
5,CC(=O)OCc1c(COC(C)=O)[n+](=O)c2ccccc2n1[O-],-0.00176
6,Cc1sc2c(c1C)CN(C(C)(C)C)CN2C(=O)c1ccccc1,0.313
7,CC1=CC(C)(C)Nc2ccc(OC(=O)C(Cc3ccccc3)N3C(=O)C4CCCCC4C3=O)cc21 (stereo not drawn),2.63
8,COc1ccc(S(=O)(=O)N2CCOCC2)cc1NC(=O)CN1CCC(Cc2ccccc2)CC1,-0.243
9,NC(=O)C1CCN(C2OC(=O)c3ccccc32)CC1 (stereo not drawn),0.341
10,Cc1cc(NC(=O)CCCS(=O)(=O)c2nc(-c3cccs3)cc(C(F)(F)F)n2)no1,-0.741
11,O=C(CN1CCN(C(c2ccccc2)c2ccccc2)CC1)N1CCOCC1,-0.28
12,O=C(CN1C(=O)c2ccccc2C1=O)N1CCN(c2ccccc2)CC1,0.109
13,CC(C)c1ccc(/C=N/NC(=O)C(=O)NCCCN2CCOCC2)cc1,-0.0531
14,COC(=O)c1nn(-c2ccccc2)c(=O)cc1Oc1ccccc1,-0.0974
15,CC(NCc1ccc2c(c1)OCO2)C(=O)NC1CCCc2ccccc21 (stereo not drawn),-0.369
16,COC(=O)COc1ccc2oc(=O)cc(C)c2c1,0.0285
17,CCC(C)NC(=O)C(NS(=O)(=O)c1cccc2nsnc12)c1ccccc1 (stereo not drawn),-0.00978
18,Cc1cccc(C2=N/C(=C\c3cccnc3)C(=O)O2)c1,0.682
19,COc1ccc(N(CC(=O)NC2CCCCC2)S(=O)(=O)c2cccnc2)cc1,0.453
20,O=C(Nc1ccc(-c2nc3ccccc3[nH]2)cc1)c1cccc(N2C(=O)CCC2=O)c1,-0.255
21,O=C(/C(=C\c1ccccc1)c1nc2ccccc2[nH]1)c1ccc(Cl)cc1,-0.37
22,C=CCN=C1CC(C)(C)CC(=O)/C1=C(/O)CCC(=O)OC,0.22
23,O=C(Nc1cccc(N2CCCC2)c1)c1cccs1,-0.165

row,Structure (SMILES),z-score
1,C=CCNc1cnn(CC(C)=O)c(=O)c1Br,-0.0909
2,O=C(/C=C/c1ccco1)Nc1cccc2cccnc12,-0.155
3,COC(=O)C1=C(N)n2c(s/c(=C\c3cccnc3)c2=O)=C(C(=O)OC)C1c1cccnc1 (stereo not drawn),-0.382
4,C/C=C/Cn1c(SCc2ccccc2)nc2c1c(=O)[nH]c(=O)n2C,-0.907
5,Cc1ccc(NC(=S)N2CCCC(c3nc4ccc(C)cc4[nH]3)C2)c(C)c1 (stereo not drawn),0.124
6,CC1CC(C)CN(S(=O)(=O)c2ccc(C(=O)N3CCN(c4ccccc4)CC3)cc2)C1 (stereo not drawn),-0.71
7,O=C(C1CCC1)N1CCC(c2nc3c(nnn3Cc3c(F)cccc3Cl)c(=O)[nH]2)CC1,-1.14
8,COc1ccc(CN2CC(C(=O)NCCN3CCOCC3)CC2=O)cc1 (stereo not drawn),-1.04
9,COc1ccc(C2=NO[C@@H]3C(=O)N(c4cccc(C)c4C)C(=O)[C@H]23)cc1OC,-0.245
10,CCC(C)(C)n1nnnc1C(c1cc2cc(C)cc(C)c2[nH]c1=O)N1CCN(Cc2ccc3c(c2)OCO3)CC1 (stereo not drawn),0.932
11,CC(C)C(=O)NC(=S)N(Cc1ccccc1)Cc1ccccc1,active: 9.57
12,COC(=O)C(C)Sc1snnc1-c1ccccc1 (stereo not drawn),-1.65
13,CN1CCN(C(=O)c2cc3sccc3n2CC(=O)c2ccccc2)CC1,-0.0487
14,CCOC(=O)c1cnc2ccc(C)cc2c1Sc1ccccc1,-0.189
15,Cc1ccc(CNC(=O)CC2C(=O)Nc3c2c(=O)n(C)c(=O)n3Cc2ccccc2)cc1 (stereo not drawn),-0.159
16,CSc1n[nH]c(NCc2ccc(Cl)cc2)n1,0.551
17,O=C(O)CC(=O)Nc1ccccc1C(=O)O,0.01
18,CC(C)c1cc(C(C)C)c(S(=O)(=O)NNC(=O)c2ccncc2)c(C(C)C)c1,-0.268
19,COc1ccccc1CNc1ncnc2c1nnn2Cc1ccccc1,0.134
20,Cc1c(C(=O)NCCC2=CCCCC2)cccc1[N+](=O)[O-],-0.0641
21,CCC(C)c1cc(S(=O)(=O)N2CCOCC2)ccc1OC (stereo not drawn),-0.586
22,Cc1cc(C(F)(F)F)nn1-c1nc(-c2ccco2)cc(C(F)(F)F)n1,0.709
